# The list shows a part of the results.
# Key:
# Assay in all cases: glycan array binding signal (z-score within array); higher = stronger binding
# Settings in all cases: glycan notation: IUPAC condensed, linker removed
# GlcA(b1-6)Gal = target: GlcA(b1-6)Gal
# Summary of the method: (§1)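 Glycan array binding is given as a within-array Z-score, which can be read as non-binding when negative. The arrays, 3228 of them, came from the Consortium for Functional Glycomics database and were retained only where the protein sequence was available. Z-scores were averaged across arrays of the same protein sequence at different concentrations or buffers and across linkers.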
# [1] = target: GlcNAc(a1-3)Gal(b1-4)GlcNAc
# Summary of the method: as §1
# [2] = target: GlcNAc(a1-4)Gal(b1-3)GlcNAc
# Summary of the method: as §1
# [3] = target: GlcNAc(a1-4)Gal(b1-4)GalNAc
# Summary of the method: as §1
# [4] = target: GlcNAc(a1-4)Gal(b1-4)GlcNAc
# Summary of the method: as §1
# [5] = target: GlcNAc(a1-4)Gal(b1-4)GlcNAc(b1-3)Gal(b1-4)Glc
# Summary of the method: as §1
# [6] = target: GlcNAc(a1-4)Gal(b1-4)GlcNAc(b1-3)Gal(b1-4)GlcNAc
# Summary of the method: as §1
# [7] = target: GlcNAc(a1-4)Gal(b1-4)GlcNAc(b1-3)Gal(b1-4)GlcNAc(b1-3)Gal(b1-4)GlcNAc
# Summary of the method: as §1
# [8] = target: GlcNAc(a1-4)Gal(b1-4)GlcNAc(b1-3)Gal(b1-4)[Fuc(a1-3)]GlcNAc(b1-3)Gal(b1-4)[Fuc(a1-3)]GlcNAc
# Summary of the method: as §1
# [9] = target: GlcNAc(a1-6)Gal(b1-4)GlcNAc
# Summary of the method: as §1
# [10] = target: GlcNAc(b1-2)Gal(b1-3)GalNAc
# Summary of the method: as §1
# [11] = target: GlcNAc(b1-2)Man(a1-3)[GlcNAc(b1-2)Man(a1-6)]Man(b1-4)GlcNAc(b1-4)GlcNAc
# Summary of the method: as §1
# [12] = target: GlcNAc(b1-2)Man(a1-3)[GlcNAc(b1-2)Man(a1-6)]Man(b1-4)GlcNAc(b1-4)[Fuc(a1-6)]GlcNAc
# Summary of the method: as §1
# [13] = target: GlcNAc(b1-2)Man(a1-3)[GlcNAc(b1-4)][GlcNAc(b1-2)Man(a1-6)]Man(b1-4)GlcNAc(b1-4)GlcNAc
# Summary of the method: as §1
# [14] = target: GlcNAc(b1-2)[GlcNAc(b1-4)]Man(a1-3)[GlcNAc(b1-2)Man(a1-6)]Man(b1-4)GlcNAc(b1-4)GlcNAc
# Summary of the method: as §1
# [15] = target: GlcNAc(b1-2)[GlcNAc(b1-4)]Man(a1-3)[GlcNAc(b1-4)][GlcNAc(b1-2)Man(a1-6)]Man(b1-4)GlcNAc(b1-4)GlcNAc
# Summary of the method: as §1
# [16] = target: GlcNAc(b1-2)[GlcNAc(b1-4)]Man(a1-3)[GlcNAc(b1-4)][GlcNAc(b1-2)[GlcNAc(b1-6)]Man(a1-6)]Man(b1-4)GlcNAc(b1-4)GlcNAc
# Summary of the method: as §1
# [17] = target: GlcNAc(b1-2)[GlcNAc(b1-6)]Man(a1-6)[GlcNAc(b1-2)Man(a1-3)]Man(b1-4)GlcNAc(b1-4)GlcNAc
# Summary of the method: as §1
# [18] = target: GlcNAc(b1-2)[GlcNAc(b1-6)]Man(a1-6)[GlcNAc(b1-2)Man(a1-3)][GlcNAc(b1-4)]Man(b1-4)GlcNAc(b1-4)GlcNAc
# Summary of the method: as §1
# GlcNAc(b1-3)Gal = target: GlcNAc(b1-3)Gal
# Summary of the method: as §1
# [19] = target: GlcNAc(b1-3)Gal(b1-3)GalNAc
# Summary of the method: as §1
# GlcNAc(b1-3)Gal(b1-4)Glc = target: GlcNAc(b1-3)Gal(b1-4)Glc
# Summary of the method: as §1
# [20] = target: GlcNAc(b1-3)Gal(b1-4)GlcNAc
# Summary of the method: as §1
# [21] = target: GlcNAc(b1-3)Gal(b1-4)GlcNAc(b1-3)Gal(b1-4)GlcNAc
# Summary of the method: as §1
# GlcNAc(b1-3)GalNAc = target: GlcNAc(b1-3)GalNAc
# Summary of the method: as §1
# GlcNAc(b1-3)Man = target: GlcNAc(b1-3)Man
# Summary of the method: as §1
# [22] = target: GlcNAc(b1-3)[GlcNAc(b1-4)][GlcNAc(b1-6)]GlcNAc
# Summary of the method: as §1
# [23] = target: GlcNAc(b1-3)[GlcNAc(b1-6)]Gal(b1-4)GlcNAc
# Summary of the method: as §1
# [24] = target: GlcNAc(b1-3)[GlcNAc(b1-6)]GalNAc
# Summary of the method: as §1
# [25] = target: GlcNAc(b1-4)Gal(b1-4)GlcNAc
# Summary of the method: as §1
# GlcNAc(b1-4)GlcNAc = target: GlcNAc(b1-4)GlcNAc
# Summary of the method: as §1
# [26] = target: GlcNAc(b1-4)GlcNAc(b1-4)GlcNAc
# Summary of the method: as §1
# [27] = target: GlcNAc(b1-4)GlcNAc(b1-4)GlcNAc(b1-4)GlcNAc(b1-4)GlcNAc
# Summary of the method: as §1
# [28] = target: GlcNAc(b1-4)GlcNAc(b1-4)GlcNAc(b1-4)GlcNAc(b1-4)GlcNAc(b1-4)GlcNAc
# Summary of the method: as §1
# [29] = target: GlcNAc(b1-4)[GlcNAc(b1-6)]GalNAc
# Summary of the method: as §1
# [30] = target: GlcNAc(b1-6)Gal(b1-4)GlcNAc
# Summary of the method: as §1
# GlcNAc(b1-6)GalNAc = target: GlcNAc(b1-6)GalNAc
# Summary of the method: as §1
binder,measurement,setting,value
"BC2L-D C-terminal domain (Burkholderia cenocepacia), Q39MQ9_BURS3 (protein) LVIVDAVTLLSAYPEASRDPAAPTVIDGRHLYVVSPGDAAQLGHNDSRLFTGLSPGDQLHLRETALALRAEVSVLFIRFALKDAGIVAPIELEVRDAATAVPDADDLLHPSCRPLKDHYWRSDVLAAGATTCTADFAVCDRDGTVSGYFRWETSIEIAGSQPDTKQPGFKPSSDRNGNFSLPPNTAFKAIFYANAADRQDLKLFIDDAPEPAATFVGNSEDGVRLFTLNSKGGKIRIEASANGRQSATDARLAPLSAGDTVWLGWLGAEDGADADYNDGIVILQWPIT",glycan array binding signal (z-score),GlcA(b1-6)Gal,-0.239
same,glycan array binding signal (z-score),[1],-0.24
same,glycan array binding signal (z-score),[2],-0.237
same,glycan array binding signal (z-score),[3],-0.245
same,glycan array binding signal (z-score),[4],-0.241
same,glycan array binding signal (z-score),[5],-0.244
same,glycan array binding signal (z-score),[6],-0.217
same,glycan array binding signal (z-score),[7],-0.235
same,glycan array binding signal (z-score),[8],-0.107
same,glycan array binding signal (z-score),[9],-0.242
same,glycan array binding signal (z-score),[10],-0.241
same,glycan array binding signal (z-score),[11],-0.239
same,glycan array binding signal (z-score),[12],-0.189
same,glycan array binding signal (z-score),[13],-0.161
same,glycan array binding signal (z-score),[14],-0.164
same,glycan array binding signal (z-score),[15],-0.161
same,glycan array binding signal (z-score),[16],-0.162
same,glycan array binding signal (z-score),[17],-0.162
same,glycan array binding signal (z-score),[18],-0.158
same,glycan array binding signal (z-score),GlcNAc(b1-3)Gal,-0.243
same,glycan array binding signal (z-score),[19],-0.239
same,glycan array binding signal (z-score),GlcNAc(b1-3)Gal(b1-4)Glc,-0.246
same,glycan array binding signal (z-score),[20],-0.241
same,glycan array binding signal (z-score),[21],-0.244
same,glycan array binding signal (z-score),GlcNAc(b1-3)GalNAc,-0.201
same,glycan array binding signal (z-score),GlcNAc(b1-3)Man,-0.243
same,glycan array binding signal (z-score),[22],-0.242
same,glycan array binding signal (z-score),[23],-0.243
same,glycan array binding signal (z-score),[24],-0.206
same,glycan array binding signal (z-score),[25],-0.239
same,glycan array binding signal (z-score),GlcNAc(b1-4)GlcNAc,-0.241
same,glycan array binding signal (z-score),[26],-0.247
same,glycan array binding signal (z-score),[27],-0.244
same,glycan array binding signal (z-score),[28],-0.241
same,glycan array binding signal (z-score),[29],-0.24
same,glycan array binding signal (z-score),[30],-0.242
same,glycan array binding signal (z-score),GlcNAc(b1-6)GalNAc,-0.206
